Source: the supplement of paper PMC4466236
Over roughly 33,000 sequences, “E-score (dimensionless, -0.5 to 0.5)” has its median near -0.058; the highest 2% begin near 0.35. This is one part of the list.

tested on: MvaT; test: PBM 8-mer E-score (mean of HK and ME arrays) (E-score (dimensionless, -0.5 to 0.5)); higher = stronger relative binding preference; most listed sequences are background and not binding sites
Description: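 Protein binding microarray: GST-tagged full-length MvaT (P. aeruginosa PAO1) bound to two universal double-stranded 60-mer arrays (ME and HK), each with a constant 25-mer primer and a variable 35-mer region covering all 8-mers. The 8-mer E-score (rank-based, range -0.5 to 0.5, >0.45 = specific binding) is the mean of the two arrays.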

Sequence | PBM 8-mer E-score
ACATACCA | 0.102
AACGTTAT | 0.289
ATTGCGGG | 0.115
CCGGATCG | -0.273
ACGTAACT | 0.129
AGAGCAAC | -0.161
AGTATTTG | 0.308
GATGACGC | -0.233
CGGCAATC | -0.127
CGCATGGC | -0.3
GAAAGACA | 0.0428
CGTTACTA | 0.0897
CCGGAGGC | -0.237
CTCTCACA | -0.253
AGTCACGA | -0.191
ATTCCTAC | 0.00348
AAGTCAAT | 0.0553
ATTATCCG | 0.212
GTGTGCCA | -0.112
CTGTGAGA | 0.00153
AAGCGCTC | -0.134
AAGACCGA | -0.223
AGCGCTAT | 0.00716
AGAACTCG | -0.169
CAGGTTTC | -0.24

Sequence | PBM 8-mer E-score
CCGGGTTA | -0.146
CGTTCTGA | -0.154
GCAGTTCA | -0.0406
AGGTTCTC | -0.286
CTTCGGCA | -0.0818
ACCAAATC | 0.0905
AGATTACC | 0.00434
CTTATGCA | 0.06
GTAAGTAC | 0.151
AGCACGAA | -0.0112
CCACCCAC | -0.199
AGTGAGGC | -0.193
GCCTGCTA | -0.177
CATTTTAC | 0.217
ATTCATTC | 0.2
AGGCCCCT | -0.343
TACTGCGA | -0.121
CACGGACA | -0.124
TCAAACGA | 0.0344
GACATATA | 0.362
CTCCATGA | -0.122
AAGCGTAA | 0.0807
GAGACTTA | 0.0232
AGCCATAA | 0.086
AGACATCC | -0.0887

Sequence | PBM 8-mer E-score
AAATTGTA | 0.267
TAGTAACA | 0.274
CGCTATTC | 0.132
AATGCCTC | -0.186
CAGCCGTC | -0.275
ATTGTATG | 0.25
ACGAGTTA | 0.232
CCCCAAGA | -0.255
GCAGCTTA | -0.0391
GTCTAGAC | -0.0101
TAATTGCA | 0.318
ATACCGCC | 0.0236
GTCTTGTA | 0.0803
ATCTGGCC | -0.308
TAATGGTA | 0.295
CCTCCCAC | -0.225
AATAAGGG | 0.231
CTATCCAA | -0.0391
AACATCGG | 0.0723
TCCCTTCA | -0.155
ACACCCAG | -0.00314
AGAGAATA | 0.195
AAACATTG | 0.193
AGTAATTC | 0.144
AGTCGAGC | -0.226

Sequence | PBM 8-mer E-score
CACATCGG | -0.276
GGCACCTA | -0.188
AGCATCTA | 0.116
TGTATACA | 0.351
GTGCATTA | 0.259
GCAGCCTA | -0.231
ATTTAAGC | 0.309
CGAATCCA | -0.19
CTTCATTA | 0.338
CTACTTCC | 0.0752
TAGTGATA | 0.216
CGAGGTAC | -0.301
AAATGGGC | -0.0679
ATATTCTA | 0.348
AGCTGACG | -0.315
GGACCAAC | -0.0023
CGACATGA | 0.0239
TAGCTTCA | -0.0931
CATATGTA | 0.252
GTCAGGTA | -0.0811
ATAGAGCA | -0.034
GTATGTGA | 0.154
CGTAAACA | -0.0446
GACGTAGC | -0.0794
ACGCTACG | -0.0596

Sequence | PBM 8-mer E-score
CTGTCCTC | -0.192
AACCAGCG | -0.109
AGGGATAC | -0.1
GGTCAACA | -0.0268
CATTTTGC | -0.123
CATCAACC | -0.195
ACAAACAC | 0.265
GTTGCTGA | 0.0521
CCTTTTCC | -0.211
TACGAGCA | -0.0785
GGAGATGA | -0.186
AAACGAAC | 0.0205
CGCTACCA | -0.153
CAACACCA | 0.0286
GGTGATGA | -0.178
ATGAAGCA | -0.0371
ACTTTGAC | 0.0802
TAGTCCCA | -0.0362
GATTCCTA | -0.0833
ACTAGAAA | 0.126
AACCCAAC | 0.113
AGCAGAAA | -0.0176
ATGCTCAG | -0.303
AGAGATGA | -0.171
AGCGCATG | -0.12

Sequence | PBM 8-mer E-score
CATTAGCG | -0.0599
CTCAATAC | 0.129
GTTCATGA | 0.0893
ACAGCTTA | 0.0908
CTTGAAGA | -0.105
CGTAATGA | 0.00917
ATAAGGAT | 0.139
CGAGGGTA | -0.0625
TAATATGA | 0.354
ACTATACA | 0.241
TGATCCAA | -0.0322
AAGTACTA | 0.257
AATGACGT | 0.0251
ATAGCTAT | 0.223
CATCCGCG | -0.146
ATTGCGTA | 0.139
AAGTGGCC | -0.204
TATAAAAA | 0.371
AGAGGTAG | -0.21
AAGTCATT | 0.131
CAATGAGC | -0.229
CGGCGTCC | -0.226
CGAGCCCA | -0.142
AGTCGCCC | -0.305
ACCGCTAC | -0.172

Sequence | PBM 8-mer E-score
AGTCGGAT | -0.221
CGCTATGA | -0.13
ATGCTAGG | -0.121
CTCGAGAA | -0.0364
AGTAGTTA | 0.265
GTAAAACA | 0.266
GCTGGTAA | -0.0318
CGGCATCA | -0.116
AGGTGCAT | -0.0802
CAGCTGTC | -0.223
GCTACCAC | -0.103
AACACCGA | -0.0333
AAGGGGTA | -0.15
TGCGTGAA | -0.185
CGAAACAG | -0.129
AACTCTCC | 0.0171
AGACATGC | -0.0895
CGGCGCCG | -0.165
TAAACTCA | 0.255
CGAGTCAA | 0.00213
CGCAGATC | -0.178
CGACTACG | -0.11
CTGATACA | 0.0751
AGCCACAC | -0.00174
AAACTCAT | 0.0651

Sequence | PBM 8-mer E-score
ATACCGTC | -0.138
AAGTCTCC | -0.239
CATGAGCA | 0.00704
CAATTGTG | 0.129
ATGCATGA | -0.142
CTAGACTC | -0.29
AAGCCTAA | -0.0321
ACGCGTCA | -0.199
GTCTGACA | -0.13
TAGGACGA | -0.0097
CCGACCGC | -0.312
TAACATCA | 0.259
ACCCAGGG | -0.234
GAATCCGC | -0.0989
ACGTGAGC | -0.229
AGACCGTG | -0.0731
GCCTACAC | -0.146
ATTCGTGG | -0.00515
CTGCGGGA | -0.21
AGCTCGCC | -0.22
GCATCACA | -0.109
GTCTTGCA | 0.0636
AATCTACT | 0.0553
GCATCGAA | -0.0501
ACGGAAAG | -0.0394

Sequence | PBM 8-mer E-score
GACGCTAC | -0.21
GATGCTGA | -0.192
CGGACGAG | -0.236
AATGAATA | 0.223
GTACCGCA | -0.0077
CCAACACG | -0.181
GCCTGTCC | -0.241
CTTACCAA | 0.104
CTATACCC | -0.012
TGTCACAA | 0.0903
ACTAACCT | -0.0268
ATGAAGCC | -0.191
GTGATATA | 0.247
CACCTAGC | -0.227
ACTGAGTC | -0.236
TCTTCACA | -0.00147
CGCACAAC | 0.0246
ATCTCCGA | -0.183
ATCCCGGG | -0.241
CCGAGTAG | -0.242
CAGCTGAA | -0.116
GGCCGCGA | -0.196
AGGAATTG | 0.0728
ACAACAGT | 0.00557
AACGGCAT | 0.0341

Sequence | PBM 8-mer E-score
CAGATGAC | -0.158
GACTTACC | -0.0439
CTCAGCGC | -0.238
GGGGGGTA | -0.254
AACAATTG | 0.217
ACTCAAAC | 0.0571
GGCCCCCA | -0.339
CTACTAGC | -0.248
ACGACCCC | -0.289
CAGCCTCC | -0.315
ATGTTACG | 0.0562
ACTCGCAA | 0.0418
CATACATG | 0.0601
GGGCGCGA | -0.204
CTCCAAGC | -0.235
AGAGGAAG | -0.145
GGCCTCAA | -0.166
AGCCCCGG | -0.303
AAATCACG | 0.0934
CCCTCAGC | -0.262
CCCGCGGC | -0.147
AAACCTGG | -0.0774
CACGAGCA | -0.153
GATCAACA | -0.0821
CGTGAGAC | -0.18

Sequence | PBM 8-mer E-score
AATCTCGG | 0.0949
TCCGCAGA | -0.0767
ATCCGCGC | -0.1
CTGCTCCC | -0.257
TCCTTAAA | -0.0192
AGTACCCA | -0.0393
CACCCTCA | -0.0206
AAAAGCTA | 0.00235
ATAAAGTA | 0.326
CGGGGCTA | -0.151
AAGTCTTG | 0.0494
CTTTACTC | -0.16
GGGTTTTA | 0.135
ACGCCCGG | -0.203
CCATTAAG | 0.203
AAAACATT | 0.225
CGGTAGTC | -0.0816
TCCCACAA | 0.0216
GCAATGAC | -0.168
AGGATAAT | 0.353
ATGCAAGA | 0.0319
GAAGTCTA | -0.00413
ACCAGGCG | -0.226
TGTGCGAA | 0.132
AACATCTT | 0.247

Sequence | PBM 8-mer E-score
AGCATCGA | -0.0945
GACGATCA | -0.181
ACGTCGCG | -0.158
GTCATAAA | 0.133
AAACACGC | 0.109
CAAGTAGG | 0.045
GACCTCTA | -0.233
CAACTCCA | -0.0538
AATTGGAT | 0.157
GCTTTGGA | -0.166
AACATCGC | 0.0349
CGGGACTC | -0.186
ATCCCTGG | -0.126
ATTAAAAT | 0.29
CTTATTCA | 0.194
TAATAAGA | 0.375
AGAAATAT | 0.356
CGTCGAGA | -0.0967
AATAACTA | 0.348
GACGTGGC | -0.232
CGGAGTAA | -0.116
GGCGAGAC | -0.166
ATTTTGTC | 0.251
ACGCTAAA | 0.127
GGCCATCA | -0.162

Sequence | PBM 8-mer E-score
ACCTTCAT | -0.0739
GATCTGAA | -0.0827
CAGTCGAA | -0.197
AAGTTATT | 0.415
GATGTCTA | -0.00553
AATGGAAT | 0.0822
CCTTTACG | -0.0732
CTGAAGCC | -0.261
ATAAAGTG | 0.228
CCTAGGAA | -0.193
CAATGTGG | -0.0165
ACTAGATA | 0.14
ATAGTTTC | 0.275
CTGACTCA | -0.167
CAGTACGC | -0.196
CGGTTATA | 0.224
GAAGCGTA | -0.0392
GCACGGGA | -0.252
GACCTTTA | 0.0184
CTGCCCGC | -0.327
ACTGAGGC | -0.0606
AATCTATC | 0.193
AACTGGAT | 0.113
CGTCGGGC | -0.21
GAACTAAC | 0.241

Sequence | PBM 8-mer E-score
CTTATCCC | -0.0794
CAGTGCCC | -0.263
AATACTCC | 0.231
GGTCAGAC | -0.0755
ATCCATCA | 0.0119
CCTTTCCA | -0.0831
GCCTCTAA | -0.00163
CGATAACC | -0.0801
CTTACGAA | 0.184
AGGAACAC | -0.0883
ATGCGACG | -0.0988
AGTCATTC | 0.0718
CACCTAGA | -0.0101
TACTCGGA | 0.0503
AACCTACA | 0.00823
GAGGGCAA | -0.147
TACTGGCA | 0.0463
ACAAGATC | 0.0189
AAGAGGAT | 0.0394
